# Reference: the supplement of paper PMC11417369
# Some of the results follow.
# Tested on: PF3D7_0420300 AP2 domain 1 (GST-tagged)
# Assay: gcPBM binding intensity (ln(normalized median fluorescence intensity)); higher = stronger DNA binding
# Method in brief: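 Alexa488 anti-GST antibody, scanned at 488 nm, detected GST-tagged P. falciparum DNA-binding domains that had been expressed in E. coli and incubated for 1 h on an Agilent 4 × 180k array. The array carried primer-extended double-stranded 36-bp intergenic genomic probes and negative controls. Binding intensity is the highest Masliner-normalised natural-log median intensity across replicate spots of either orientation of each probe.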
row,Sequence,gcPBM binding intensity (ln)
1,TTAATAACGTAATGTAAATGTTTCATACCCTTTTTT [CACACA_negctrl_site988],9.16
2,AAAGAAGGGGGGGGAAAAAAAAATAAAAGAGGAAAA [XGTACX_negctrl_site92],9.59
3,ATAAAATAAAAACATGCACACTTTATTTTTTTTAAG [CACACA_site5545],9.25
4,TGGGGTATTAAAAAAACACACAAAAAAAATATAAAG [CACACA_site1915],9.43
5,GATAATAATAAGTGTACACATATATTTAGAAGAGTA [CACACA_site4245],9.39
6,AAAATGTATATTGGCGCATGTAAACAAATACTATAC [TGCATGCA_site385],9.44
7,TCCTCATTTTATCATACACACTTGTTTATATGTGTG [CACACA_site6548],9.56
8,TATATATATATAATTTGTACACACAAATATGCATAT [XGTACX_site7297],9.38
9,ATATATAATAATTGTAGTACAATTAATAAATAAAAT [XGTACX_site3840],9.42
10,ATACGATTGCAGTCAAAAAGGAAAATATAAAAAAAG [XGTACX_negctrl_site124],9.2
11,AATATTTATAAATTTACACACACACCCGTGAACATA [CACACA_site1910],9.96
12,TTATCATTTTAAATCACACACATATATAAATATGTA [CACACA_site7359],9.32
13,CACATAAATAATTAAACACACATTGTTCTAGACAAT [CACACA_site2378],9.61
14,TTTGAGTTACTATTCACACAAAATGGATAAATTAAT [CACACA_site5626],9.1
15,TATATAGGTATATATACACACAACGGTTATAAATAT [CACACA_site4759],9.74
16,TATAAAGACACGAAAACACACATATGTAAATATATA [CACACA_site8056],9.75
17,AGGATAAAAGTTATGGTGCATTAACCTATTTAAATA,9.14
18,TACATATTACTATTCAGTACATATTTTTTTTTCATT [XGTACX_site7468],9.33
19,TAGTTTTGAAAACAAACACACAAAAAAAAAAAAAAA [CACACA_site1692],9.05
20,AATATAAAAAATAATACACACACATGGCGACAAAAT [CACACA_site8765],10.2
21,ATGTAAGTAATTATCTGTACACATAATATATATATA [XGTACX_site2618],9.33
22,AATAATAAAAAAAGTGCACACACATAATATATATAT [CACACA_site9100],9.82

row,Sequence,gcPBM binding intensity (ln)
1,AACAATATATTGATATTATTTTAAGTGATTATATAT [XGTACX_negctrl_site205],9.22
2,TATAAAAAAATAAAAGGAATATACTTGCAAAGGGTA [CACACA_negctrl_site1438],9.61
3,TTTCAAATGATTAAGTGTACATGTTTGCTTGCTCTT [XGTACX_site4697],9.24
4,TTTTTTTTTGTTATGTTGCACTTTGCCATATTATTA [GTGCAC_site9844],9.45
5,AATTTTATTACTTTTACACACCTATATATCATTCAT [CACACA_site7525],9.76
6,TAGGGATTATACCACACACACATACACATAAATATA [CACACA_site3178],9.96
7,AAGAATAAGGAAAAATGTACAGAATGCACATATGAA [XGTACX_site4705],9.4
8,ACCTTAAATAATACATGTACAAAAAAATTTATAATA [XGTACX_site1043],9.2
9,AAAAAAAATACAAAAAGTACAAAAAATACAAAAAAA [XGTACX_site8844],9.64
10,ATGTATATATATATATGTACATATTTTTTATATGTA [XGTACX_site441],9.2
11,TTCTTTTTTTAAAGAAGTACTATATTTTAAATTATA [XGTACX_site5059],8.83
12,TTTAAAATAAATTAATAGAACAAAAATAAAATGATT [GTGCAC_negctrl_site375],9.39
13,TTAAATAATGCCACCAGTACCCACTGAAAGAAAAAA [XGTACX_site5013],9.23
14,CAATTGATATTGAAATGTACTTTTTAGATGAACCTT [XGTACX_site2354],8.96
15,TATATTAAAATTTACTGTACTTTTTTTATTTTAAAA [XGTACX_site4077],8.92
16,AAAGATATAAATTACTGTACTAATGAAATTGGTAAA [XGTACX_site3582],9.15
17,ATATTAAAATTTTAATGTACATGCGTATGTAGGAAT [XGTACX_site1673],9.44
18,TATATTATATTTTTATGTACTTATTTATTTTGTTTC [XGTACX_site6145],9.46
19,AACATATATTTTTAATGTACAAGGTTGTAAAGAACT [XGTACX_site1405],9.25
20,ATGTATATATTCAATTGTACATGTTATATTTACACA [XGTACX_site1125],9.25
21,ATTGTATTAAAATGCACACATATCAAGAGGAATTTT [CACACA_site283],9.22
22,AAAGAATAATTAAATACACACATATTGCAGTAAAAA [CACACA_site7201],9.69

row,Sequence,gcPBM binding intensity (ln)
1,TGTAAAATATAAAAAGTGCATTTCTTTTAATATGAT,9.1
2,TTCTGTCAATATGCTTGTACGAAATATTTCGTAATT [XGTACX_site3182],9.4
3,ATAAATAAATACTAGGCACACACACCGATATATATA [CACACA_site8649],10.1
4,TATTAATCCTTTTGCTTGGAAACATTCAAAAGGAAG [CACACA_negctrl_site1129],8.69
5,AAAATAAACCCAGACACACTCATTAAAAAATATCAT [CACACA_site5903],9.6
6,ATATATATAAAATATGGTACAGAAAAAGTCTTGTTT [XGTACX_site8868],9.53
7,AATCCTTAAAATTAACGTACGAAATGAATTTATTAA [XGTACX_site956],8.96
8,TGGAGGTCATTACACAGTACCCAGGAAATCTACGGA [XGTACX_site2004],9.08
9,AAACCGTGGGAGCACACACACACACCCACCCATATA [CACACA_site332],10.2
10,ATAATAACAAAATATTAACACACATAACATATTATA [CACACA_site8906],9.71
11,ACAAAACAAAACAAAAGTACACAAAATAAATAAGAT [XGTACX_site6497],9.92
12,AAAGTTTTTATAAAAAAAAAAATAAATACCATATAT [XGTACX_negctrl_site113],9.31
13,GTGTTTTTATGTGAATGTACATATTTACTATCACAC [XGTACX_site2388],9.56
14,AAAAGTTTAAGTTTTCGAAAATTTACCAAAAAAAAA [CACACA_negctrl_site1644],9.06
15,AATCCTTACGAACACACACACACGAATAAATAAAAA [CACACA_site6363],10.1
16,TAGAATTAAGTTATTGCACACAGGAAAAGTTTCATA [CACACA_site1634],9.32
17,TCTTCGAAACTATCACTCTCACAATTCATTTATTTT [TGCATGCA_negctrl_site156],9.3
18,ATAAATAAGAAAAATTGTACAATATTTTTTAGGATA [XGTACX_site3163],9.21
19,ATATACATTAAATGAACACACATAAATAAATTACAT [CACACA_site2852],9.62
20,TTTTAATTTTGTTGTTGTACAAATAACATGTGAGGG [XGTACX_site4401],9.06
21,TATTTTATCATTTTTTTTATGTCTTTATTTCACTTG [CACACA_negctrl_site1398],9.43
22,CTGTGTTTTGGTTGTACACACGCTACATTATATATT [CACACA_site5487],9.79

row,Sequence,gcPBM binding intensity (ln)
1,AACACATAAAAAAGGTGTACCATAAAATATACATAC [XGTACX_site4478],9.58
2,CTCATTTTTGTACAGGTGCACTTATCGTTACACTAT,9.52
3,ATATATATATATATATCATTTATTTAAAAATTTTTT [TGCATGCA_negctrl_site228],8.96
4,ATATACACATTAATAACACACAATATGATAACAAAT [CACACA_site7670],10
5,GTCTAAAAATAAAAAGTGCATTTGTTTAATATTTTG,9.25
6,TGATTGTATTAAAATGCACACATATCAAGAGGAATT [CACACA_site7985],9.41
7,TTAATTTTTTTTTTTTGTACTCATATGTAATTCATC [XGTACX_site3071],9.16
8,ATTAAAACAAATATGTGTACATAAAAATATATATAT [XGTACX_site8394],9.54
9,TATTATTATTATTATTTTAAAAGAAATAAAAATATG [XGTACX_negctrl_site119],8.74
10,TTAATAAATATGTTTACACACGAAAATACATTTTTT [CACACA_site8245],9.27
11,TTAAAAGTTATGGATACACACATATAAATATAGATT [CACACA_site7175],9.46
12,TCGATTAAAACACAAAAATATAAATACATTGATAAA [TGCATGCA_negctrl_site523],9.14
13,TAATTTTCATAATTTTGTACTTAACGTTTTACCTTG [XGTACX_site8048],9.27
14,ATTTTAATTTTTTAAGTATTATATGAATATTTATTA [TGCATGCA_negctrl_site142],8.94
15,TTACTTTAACCTTCTCGTACTTATTTACTTTATTCT [XGTACX_site7801],9.7
16,TTTCAAAGGAAATGGTGTACACAATTTTTCCTTTTT [XGTACX_site2340],8.95
17,TTTTATTATTCTTCTCTCTTATATATATATATATAT [CACACA_negctrl_site646],9.39
18,ATAACATAGGCAATCACACATATCATTAAGGTGTCA [CACACA_site5233],9.58
19,ACTGTGGTATAAAGTTGTACATGTTTTTATATATTT [XGTACX_site5257],9.59
20,TACTTTTATATGAATACACACAGGAATATATATATG [CACACA_site3568],9.48
21,ATTTACATAAACGTCTGTACTAATATACAATTTTCT [XGTACX_site1700],9.3
22,CATAAAATTGTATTTTGTACACATTTTGTATACATT [XGTACX_site5705],9.23
